Article PMC4336329 (PLoS ONE, 2015)
The whole screen tested about 310,000 compounds, of which about 14,000 (4.5%) showed an effect of 50% or more. Effects have a minus sign here. The list shows a part of the results.

Target: human ether-à-go-go-related gene (hERG) potassium channel (human, UniProt Q12809)
Assay: primary screen, population patch clamp on CHO cells stably expressing hERG
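Note: peak tail current of the secondary pulse compared with the same well before compound.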

Sequence of human ether-à-go-go-related gene (hERG) potassium channel (Q12809 whole entry, looked up): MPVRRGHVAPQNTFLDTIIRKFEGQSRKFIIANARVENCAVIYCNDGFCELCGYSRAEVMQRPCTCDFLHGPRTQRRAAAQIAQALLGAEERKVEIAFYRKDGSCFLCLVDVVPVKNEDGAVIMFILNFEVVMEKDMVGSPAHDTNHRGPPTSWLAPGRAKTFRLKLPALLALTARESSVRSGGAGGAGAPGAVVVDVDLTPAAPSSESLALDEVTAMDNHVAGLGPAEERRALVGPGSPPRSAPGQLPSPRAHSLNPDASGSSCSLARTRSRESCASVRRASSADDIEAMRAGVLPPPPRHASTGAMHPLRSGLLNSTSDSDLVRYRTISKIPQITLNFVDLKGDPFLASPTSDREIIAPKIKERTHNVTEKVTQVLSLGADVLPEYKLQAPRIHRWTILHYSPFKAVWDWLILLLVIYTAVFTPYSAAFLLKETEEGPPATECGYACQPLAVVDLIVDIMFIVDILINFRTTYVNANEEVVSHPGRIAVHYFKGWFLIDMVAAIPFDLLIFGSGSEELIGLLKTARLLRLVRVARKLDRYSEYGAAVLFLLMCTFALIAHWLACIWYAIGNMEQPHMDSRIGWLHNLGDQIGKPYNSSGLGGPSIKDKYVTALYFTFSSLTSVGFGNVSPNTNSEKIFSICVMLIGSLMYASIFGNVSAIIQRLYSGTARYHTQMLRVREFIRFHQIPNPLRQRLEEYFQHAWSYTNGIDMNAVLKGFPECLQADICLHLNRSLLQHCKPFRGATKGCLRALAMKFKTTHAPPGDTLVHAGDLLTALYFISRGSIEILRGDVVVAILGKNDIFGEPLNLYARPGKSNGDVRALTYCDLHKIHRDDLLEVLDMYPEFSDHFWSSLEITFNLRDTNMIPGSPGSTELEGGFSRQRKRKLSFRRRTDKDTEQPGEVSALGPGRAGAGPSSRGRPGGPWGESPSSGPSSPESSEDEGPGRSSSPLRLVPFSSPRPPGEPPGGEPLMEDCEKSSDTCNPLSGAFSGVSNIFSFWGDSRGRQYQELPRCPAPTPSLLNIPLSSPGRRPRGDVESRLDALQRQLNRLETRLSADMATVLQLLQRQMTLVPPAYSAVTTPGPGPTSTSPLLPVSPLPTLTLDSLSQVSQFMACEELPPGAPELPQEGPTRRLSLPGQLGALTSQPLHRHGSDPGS

SMILES	hERG current change (%, negative = inhibition) at 10uM [%]
Cc1ccc(/C=C2/C(=O)NC(=O)N(CC3CCCO3)C2=O)s1 (stereo not drawn)	-1.61
COc1ccc(N(C(=O)c2snc(C(N)=O)c2N)C(C(=O)NCC2CCCO2)c2ccc(C)o2)cc1OC (stereo not drawn)	23.6
COc1ccccc1N1CCN(C(=O)C2CCCN(S(=O)(=O)c3ccc(C)cc3)C2)CC1 (stereo not drawn)	-38.3
COc1ccccc1CN(C)C(=O)CN1C(=O)c2ccccc2C1=O	15.6
CCc1sc(C(=O)Nc2cccnc2)cc1Br	5.88
CCOc1ccc(/C(O)=C2\C(=O)C(=O)N(CCN(C)C)C2c2cccc(OC)c2OC)cc1Cl (stereo not drawn)	-0.687
Cn1c(=O)[nH]c(=O)c2c1nc(CN1CCN(c3ccc(F)cc3)CC1)n2CCCc1ccccc1	-46.8
COC(=O)c1sc(NC(=O)COc2cccc(C)c2)nc1C	7.05
O=C(Cc1cn2ccsc2n1)Nc1ccccn1	11.7
COC(=O)Cn1cc(/C=C(/C#N)C(=O)N2CCOCC2)c2ccccc21	6.47
C[NH+](C)CC(C)(C)CNS(=O)(=O)c1ccc(Cl)c(Cl)c1.[Cl-]	4.29
OCC(Cc1ccc2c(c1)OCO2)C(CO)Cc1ccc2c(c1)OCO2 (stereo not drawn)	7.84
O=C(N/N=C/c1c[nH]c2ccccc12)c1cccc(Cl)c1	11.7
Cc1ccc(Nc2nc(N)nc(CN3CCN(C(=O)c4ccco4)CC3)n2)cc1Cl	-74
Nc1c(Cl)ncnc1NCc1ccccc1	7.06
O=C(NCc1ccccc1)c1ccc(S(=O)(=O)C(F)F)cc1	-21.9
COc1ccc2oc(C(=O)OCC(=O)NC(=O)c3ccccc3)c(C)c2c1	16.6
CN(C)/N=C/c1ccc([N+](=O)[O-])cc1[N+](=O)[O-]	8.46
CCSc1nnc(NC(=O)CCc2ccccc2)s1	10.7
N#Cc1c(/N=C/c2ccco2)sc2c1CCC2	-1.35
CS(=O)(=O)NN1C(=O)c2ccccc2NC1c1cccc(O)c1 (stereo not drawn)	8.93
O=C(NC1CCCCC1)c1nc2c(nnn2Cc2ccccc2Cl)c(=O)[nH]1	21.5
CCOC(=O)N1CCC(N2CCN(S(=O)(=O)c3ccc(C)cc3)CC2)CC1.O=C(O)C(=O)O	-19.1

SMILES	hERG current change (%, negative = inhibition) at 10uM [%]
COc1ccccc1N1N=C(C(=O)c2ccccc2)C2C(=O)N(c3ccc(Br)cc3)C(=O)C21 (stereo not drawn)	2.61
CS(=O)(=O)c1ccc2nc(NC(=O)c3cccc([N+](=O)[O-])c3)sc2c1	3.34
O=C(NCCO)C(=O)NCC1CCCN1S(=O)(=O)c1cccs1 (stereo not drawn)	1.65
Nc1c(C(=O)NCCN2CCOCC2)c2nc3ccccc3nc2n1CCc1ccccc1F	-27.2
CCc1sc(-c2c(C#N)c(N)nc3c2CCCCCC3)cc1[N+](=O)[O-]	14
CCc1c(C(=O)Nc2cc(C)ccc2OC)[nH]c(C)c1C(C)=O	-4.75
COCCNC(=O)CSc1nnc(-c2ccccc2F)n1Cc1ccccc1	-5.26
Nc1c(C(=O)Nc2ccc3c(c2)OCCO3)nnn1Cc1cccc(Br)c1	-5.91
CNC(=S)N1N=C(c2ccc(OC)cc2)CC1c1ccc(Cl)cc1Cl (stereo not drawn)	6.61
NNC(=O)Cn1c(-c2ccccc2)cc(=O)n2ncnc12	5.38
CC1CCCCN1C(=O)c1ccc(CS(=O)(=O)Cc2ccccc2)cc1 (stereo not drawn)	-2.32
COCCNC(=S)N(CCCO)Cc1cc2cc3c(cc2[nH]c1=O)OCCO3	14.2
COc1ccc(Cc2nnc(NC(=O)Nc3cccc(OC)c3)s2)cc1	10.5
CN(C)S(=O)(=O)c1ccc(Cl)c(NC(=O)COC(=O)CCC(=O)c2cccs2)c1	-24.9
CCN(CC(=O)NC1CCS(=O)(=O)C1)C(=O)COc1ccccc1-c1ccccc1 (stereo not drawn)	11.7
CCN(CC)CC(O)c1cccn1-c1ccc(CNC(=O)NC(C)C)cc1 (stereo not drawn)	14
O=C(N/N=C1\CCS(=O)(=O)c2ccc(F)cc21)c1ccc([N+](=O)[O-])cc1	-19.6
Cc1cc(-c2ccc(C(C)C)c(S(=O)(=O)NCCN3CCC(C)CC3)c2)on1	-3.78
CC(C)Cc1nnc(NC(=O)CCNC(=O)c2ccco2)s1	10
CCOc1ccc(CN(C)C(=O)c2cccnc2SC)cc1OC	8.9
COc1cccc(C(=O)NCCS(=O)(=O)N2CC(C)CC(C)C2)c1 (stereo not drawn)	-13
O=C(Nc1ccc([N+](=O)[O-])cc1)c1cc(Cl)sc1Cl	-1.52
